# Test results taken from PMC4336329 (PLoS ONE, 2015).
# Among all 310,000 compounds or so, about 2,200 (0.71%) showed an effect of 50% or more. Effects have a minus sign here. This is one part of the list.
# Molecular target: human ether-à-go-go-related gene (hERG) potassium channel (human, UniProt Q12809)
# Assay: primary screen, population patch clamp on CHO cells stably expressing hERG
# Chain of human ether-à-go-go-related gene (hERG) potassium channel (Q12809 whole entry, looked up): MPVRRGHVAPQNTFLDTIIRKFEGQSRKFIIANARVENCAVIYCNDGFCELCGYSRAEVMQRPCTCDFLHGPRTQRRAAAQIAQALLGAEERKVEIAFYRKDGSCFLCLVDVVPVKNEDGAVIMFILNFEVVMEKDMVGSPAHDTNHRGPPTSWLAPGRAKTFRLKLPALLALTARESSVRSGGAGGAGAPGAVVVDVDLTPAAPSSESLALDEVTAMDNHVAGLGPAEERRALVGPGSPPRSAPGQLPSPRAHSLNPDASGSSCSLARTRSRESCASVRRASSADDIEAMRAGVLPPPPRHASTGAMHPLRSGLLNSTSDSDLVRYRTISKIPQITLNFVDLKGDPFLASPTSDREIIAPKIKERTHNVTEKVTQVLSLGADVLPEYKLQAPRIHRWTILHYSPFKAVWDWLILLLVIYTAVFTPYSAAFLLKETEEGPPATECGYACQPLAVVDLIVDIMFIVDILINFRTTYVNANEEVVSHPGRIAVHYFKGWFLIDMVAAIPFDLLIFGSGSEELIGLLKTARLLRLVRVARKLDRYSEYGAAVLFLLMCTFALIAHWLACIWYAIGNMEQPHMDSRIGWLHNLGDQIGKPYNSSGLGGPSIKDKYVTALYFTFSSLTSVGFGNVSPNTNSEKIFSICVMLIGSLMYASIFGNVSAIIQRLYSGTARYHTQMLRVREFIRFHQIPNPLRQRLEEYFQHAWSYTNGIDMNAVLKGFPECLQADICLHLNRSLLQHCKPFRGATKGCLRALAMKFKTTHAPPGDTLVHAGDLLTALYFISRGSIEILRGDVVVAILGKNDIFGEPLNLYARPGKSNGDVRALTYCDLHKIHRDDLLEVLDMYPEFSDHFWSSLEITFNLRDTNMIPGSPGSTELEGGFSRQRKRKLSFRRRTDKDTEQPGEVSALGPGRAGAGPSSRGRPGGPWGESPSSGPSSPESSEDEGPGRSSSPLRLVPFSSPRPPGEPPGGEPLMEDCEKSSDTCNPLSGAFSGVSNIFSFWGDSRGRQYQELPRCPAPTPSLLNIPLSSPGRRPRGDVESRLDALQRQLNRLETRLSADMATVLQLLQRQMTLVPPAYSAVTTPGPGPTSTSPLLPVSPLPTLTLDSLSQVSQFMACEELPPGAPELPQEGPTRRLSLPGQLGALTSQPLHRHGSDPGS
row,Compound,"hERG current change (%, negative = inhibition) at 1uM"
1,O=C(O)C1CCCN(S(=O)(=O)c2ccccc2[N+](=O)[O-])C1 (stereo not shown),4.46%
2,CN(CC(=O)NNC(=O)CNC(=O)c1ccccc1Cl)S(=O)(=O)c1ccc(Cl)cc1,18.1%
3,S=C(NCCCn1ccnc1)NC1CCCCC1,-5.87%
4,COc1ccccc1CCN1CCCC(CN(C)C(=O)c2ccco2)C1 (stereo not shown),-42.8%
5,CC12CCC(=O)N1C(C(=O)NCCc1ccccc1)CS2 (stereo not shown),4.35%
6,Cc1n[nH]c(=O)c2c(NC(=O)CSc3c(Cl)cccc3Cl)oc(C)c12,-1.97%
7,CCOC(=O)Nc1c2ccccc2nc2ccccc12,9.63%
8,O=C(N/N=C/c1c[nH]c2ccc(Br)cc12)c1ccncc1,12.3%
9,CCOc1ccc(C(C(=O)NC2CCCC2)N(CCCO)C(=O)c2ccc(-c3ccccc3)[nH]2)cc1 (stereo not shown),-8.44%
10,N#CCCC(CCC#N)(CCC#N)c1cc[n+](CCc2ccccn2)cc1.[Cl-],12.5%
11,Cc1ccc(OCCn2cnc3c2c(=O)n(C)c(=O)n3C)cc1,22.9%
12,COc1ccc(C)cc1S(=O)(=O)NC1CCCCCC1,8.89%
13,CCOC(=O)c1ccc(NC(=O)C(=O)NCc2ccncc2)cc1,0.418%
14,CCN(CC)S(=O)(=O)c1ccc(C)c(NC(=O)COc2ccc3c(C)cc(=O)oc3c2)c1,6.53%
15,COc1ccc(S(=O)(=O)N2CCn3c2nc2ccccc23)cc1,-4.34%
16,Cc1ccc(C2=N/C(=C/c3cccs3)C(=O)N2Nc2ccccc2)cc1,6.14%
17,CCn1c(CC(=O)Nc2ccccc2C)nnc1SCC(=O)NC1CCCC1,-0.0032%
18,CCN(c1ccccc1)S(=O)(=O)c1cc(C(=O)OC2CCOC2=O)ccc1C (stereo not shown),9.05%
19,CC(C)Cn1cc(C(=O)N2CCC(C)CC2)c2c3ccccc3n(C)c2c1=O,-3.32%
20,O=C(Nc1ccccc1-c1ccccc1)c1cc(C(F)(F)F)cc(C(F)(F)F)c1,3.19%
21,COc1cc(NC(=O)C23CC4CC(C2)CC(n2cnc([N+](=O)[O-])n2)(C4)C3)cc(OC)c1,-13.4%
22,Cc1noc(/C=C/N(C)C)c1S(=O)(=O)N1CCCC(C(=O)NC(C)c2ccccc2)C1 (stereo not shown),8.73%

row,Compound,"hERG current change (%, negative = inhibition) at 1uM"
1,CCCCNCCOc1ccccc1-c1ccccc1.O=C(O)C(=O)O,3.5%
2,CCC(C(=O)NCC1CCCO1)N(Cc1ccccc1)C(=O)CNS(=O)(=O)c1ccccc1 (stereo not shown),4.41%
3,COc1ccc(Cl)cc1NC(=O)Nc1cn(C)nc1C,11.9%
4,CCN=C1SC(C(=O)Nc2ccc(OC)cc2)CC(=O)N1CC (stereo not shown),10.1%
5,CCOC(=O)C1=NN(C(=O)COc2ccccc2)C(O)(c2ccc(Cl)cc2)C1 (stereo not shown),-3.22%
6,Cc1cc(/C=N/n2cnnc2)c(C)n1-c1cccc(Cl)c1,3.09%
7,O=C(COC(=O)/C=C/c1cccc(C(F)(F)F)c1)Nc1ccc(Cl)cn1,14.5%
8,CCc1ccc2c(c1)C(=O)C[C@]1(CCC[C@H](C)C1)O2,-5.59%
9,Nc1ccc2nc(CCc3ccccc3)[nH]c2c1,2%
10,CSc1nnc(-c2ccco2)c(-c2ccco2)n1,9.59%
11,COc1ccc(-c2c3c(=O)n(C)c(=O)n(C)c3cn2-c2ccccc2O)cc1,14%
12,COc1ccccc1NC(=O)CSC(N)=O,16.1%
13,CN(C)C(=O)Cn1c(SCC(=O)NC2CCCCC2)nc2ccccc21,12.2%
14,CCCCCCC(C)(C)c1ccc([C@@H]2C[C@H](O)CC[C@H]2CCCO)c(O)c1,10.3%
15,COCC1CCN(C(=O)C2CCC(=O)N(CCc3cccc(F)c3)C2)CC1 (stereo not shown),10.9%
16,Cc1noc(C)c1COc1ccc(C(=O)OCC(=O)Nc2ccc3ccccc3c2)cc1,8.77%
17,O=C(Nc1nnc(CCN2CCOCC2)s1)C1CCCCC1,9.36%
18,CCOc1ccc(C2c3cc(OC)c(OC)cc3CC(=O)N2c2ccc(OC)cc2)cc1 (stereo not shown),20.9%
19,CCCN(CC1CC1)CC(O)c1ccccc1.O=C(O)C(=O)O (stereo not shown),16.7%
20,Fc1ccc(-c2cc(C(F)(F)F)nc(NCC3CCCO3)n2)cc1 (stereo not shown),11.8%
21,O=C(O)C1CCCCC1C(=O)N1CC=C(c2ccccc2)CC1 (stereo not shown),11%
22,CCCn1nc(C(=O)NNC(=O)C2CSC3(C)CCC(=O)N23)c2ccccc2c1=O (stereo not shown),8.62%

row,Compound,"hERG current change (%, negative = inhibition) at 1uM"
1,CCOC(=O)CC1NCCc2c1[nH]c1ccc(OC)cc21.Cl (stereo not shown),10.5%
2,CC1CCN(C(=O)CSc2nnc(CNC(=O)COc3ccc(Cl)cc3)o2)CC1,10.5%
3,COc1ccc(C(=O)Nc2cccc(-c3csc(C)n3)c2)cc1S(=O)(=O)N1CCCC1,2.41%
4,O=C(CN1CCN(S(=O)(=O)c2ccccc2)CC1)Nc1ccc(Cl)cn1,-9.81%
5,O=C(NC1CCCC1)C(c1ccsc1)N(Cc1ccccc1)C(=O)Cc1cccs1 (stereo not shown),3.99%
6,O=C(Cc1cccs1)Nc1cccc(-c2nc3ccccc3[nH]2)c1,8.25%
7,COc1ccc(C(N)CCc2ccc(C)o2)cc1.Cl (stereo not shown),1.02%
8,O=C(NC1CC1)c1ccc2c(c1)ncn2C1CCCC1,3.39%
9,CN(Cc1ccncc1)C1CC(=O)N(c2ccc(F)cc2)C1=O (stereo not shown),13.6%
10,COc1ccccc1N1C(=O)NC(=O)/C(=C/c2ccc3c(c2)Cc2ccccc2-3)C1=O,7.53%
11,CCOc1cccc(CN2CCN(c3cccc(C(F)(F)F)c3)CC2)c1O,-19%
12,Cc1nnc(NC(=O)CSc2nnc(CNC(=O)C34CC5CC(CC(C5)C3)C4)n2C2CCCCC2)s1,11.9%
13,Cc1ccccc1CN(c1ccc(C(=O)N2CCc3ccccc3C2)cc1)S(C)(=O)=O,-11.6%
14,O=S(=O)(c1ccc(-c2ccccc2)cc1)N1CCCCC1,14%
15,Cc1cc(N2CCN(c3nc4ccccc4s3)CC2)n2ncnc2n1,-74.9%
16,CCCc1cc(=O)[nH]c(SCC(=O)Nc2ccc(OC(F)F)cc2)n1,8.93%
17,COc1ccc(S(=O)(=O)N2CCC(C(=O)Nc3ccc(F)cc3)CC2)c2cccnc12,-1.03%
18,Cc1ccccc1Cn1ccc(NC(=O)c2cnn3c2NC(c2ccccc2)CC3C(F)(F)F)n1 (stereo not shown),-6.19%
19,Cc1ccc(NC(=O)c2ccc(OC(=O)c3cc4ccccc4o3)cc2)cc1,6.15%
20,CS(=O)(=O)N(CC(=O)N1CCCC1)c1cc(Cl)c(Cl)cc1Cl,-0.569%
21,Cc1ccc(-n2c(O)c(/C=N/N3CCOCC3)c(=O)[nH]c2=S)cc1,6.03%
22,COc1ccc(Cc2nnc(NC(=O)C3CC(=O)N(CCc4ccc(F)cc4)C3)s2)cc1OC (stereo not shown),19.5%

row,Compound,"hERG current change (%, negative = inhibition) at 1uM"
1,O=C(N/N=C/c1cccnc1)/C(=C\c1cccs1)NC(=O)c1ccccc1,4.1%
2,CC(C)c1ccc(C2NC(=O)c3ccccc3O2)cc1 (stereo not shown),11.9%
3,COCCCn1c(=S)[nH]c(C)c(C)c1=O,13.1%
4,Cn1c(SCC(=O)Nc2ccc(N3CCOCC3)cc2)nnc1-c1ccccc1F,0.175%
5,CCOC(=O)[C@H]1[C@H]2COc3ccc(OC)cc3[C@@H]2N2C(=O)c3cc(OC)ccc3NC(=O)[C@@]12C,3.96%
6,CN(C(=O)COc1ccc([N+](=O)[O-])cc1)C1CCS(=O)(=O)C1 (stereo not shown),9.28%
7,O=C(CN1CCCCC1)NCCNC(=O)CN1CCCCC1,4.2%
8,Cc1ccc2cc(C#N)c(NCCNC(=S)NCCCN(C)C)nc2c1C,7.13%
9,COc1cccc(Oc2ccc(N/C=C/C(=O)C(C)(C)C)cc2)c1,9.86%
10,Cc1cccc(C)c1OCc1n[nH]c(=S)n1-c1ccccc1,17%
11,COc1ccc(-n2c(SCC(=O)N3CCC(C(=O)O)CC3)nc3ccccc3c2=O)cc1OC,20%
12,O=C(NN=C1CCCC1)c1ccccc1[N+](=O)[O-],15.6%
13,N#Cc1ccsc1NC(=O)CCN1CCN(C(c2ccccc2)c2ccccc2)CC1,11.4%
14,Cc1cc(Nc2ccc(F)c(Cl)c2)n2ncnc2n1,6.23%
15,CCCc1nn(C)c(C(=O)Nc2cccc(CC)c2)c1Cl,6.37%
16,CCCCn1c(SCC(=O)Nc2oc(C)c3c(C)n[nH]c(=O)c23)nc2cc(S(N)(=O)=O)ccc21,-2.66%
17,CCc1ccccc1NC(=S)N(Cc1ccco1)C(C)c1cccs1 (stereo not shown),14.6%
18,O=C(NNC1=NS(=O)(=O)c2ccccc21)c1ccccc1,-5.92%
19,O=C(NNc1ccc(F)cc1F)C1CCC1,3.02%
20,COCCSc1ccccc1C(=O)N1CCOCC1,5.01%
21,Cn1c(=O)cc(SCC(=O)N2CCCC2)c2ccc(Cl)cc21,-0.412%
22,COc1ccccc1CNC(=O)c1cnc2sccn2c1=O,9.16%
